Measurements taken from the supplement of paper PMC8728848.
This is one part of the list.

Tests used:
Test in all cases: glycan array binding signal (z-score within array); higher = stronger binding
Conditions in all cases: glycan notation: IUPAC condensed, linker removed
[1] = molecular target: Man(a1-3)[Man(a1-6)]Man(a1-6)[Man(a1-3)]Man
How it was run: (§1)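 Glycan array binding is given as a within-array Z-score, which can be read as non-binding when negative. The arrays, 3228 of them, came from the Consortium for Functional Glycomics database and were retained only where the protein sequence was available. Z-scores were averaged across arrays of the same protein sequence at different concentrations or buffers and across linkers.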

[2] = molecular target: Man(a1-3)[Man(a1-6)]Man(a1-6)[Man(a1-3)]Man(b1-4)GlcNAc(b1-4)GlcNAc
How it was run: as §1

[3] = molecular target: Man(a1-3)[Man(a1-6)]Man(b1-4)GlcNAc(b1-4)GlcNAc
How it was run: as §1

[4] = molecular target: Man(a1-3)[Man(a1-6)]Man(b1-4)GlcNAc(b1-4)[Fuc(a1-6)]GlcNAc
How it was run: as §1

Man(a1-6)Man = molecular target: Man(a1-6)Man
How it was run: as §1

Man(b1-4)GlcNAc = molecular target: Man(b1-4)GlcNAc
How it was run: as §1

MurNAc(b1-4)GlcNAc = molecular target: MurNAc(b1-4)GlcNAc
How it was run: as §1

Neu5Ac(a2-3)Gal = molecular target: Neu5Ac(a2-3)Gal
How it was run: as §1

[5] = molecular target: Neu5Ac(a2-3)Gal(b1-3)GalNAc
How it was run: as §1

[6] = molecular target: Neu5Ac(a2-3)Gal(b1-3)GalNAc(b1-3)Gal(a1-4)Gal(b1-4)Glc
How it was run: as §1

[7] = molecular target: Neu5Ac(a2-3)Gal(b1-3)GalNAc(b1-4)Gal(b1-4)Glc
How it was run: as §1

[8] = molecular target: Neu5Ac(a2-3)Gal(b1-3)GalNAc(b1-4)[Neu5Ac(a2-3)]Gal(b1-4)Glc
How it was run: as §1

[9] = molecular target: Neu5Ac(a2-3)Gal(b1-3)GalNAc(b1-4)[Neu5Ac(a2-8)Neu5Ac(a2-3)]Gal(b1-4)Glc
How it was run: as §1

[10] = molecular target: Neu5Ac(a2-3)Gal(b1-3)GalNAc6S
How it was run: as §1

[11] = molecular target: Neu5Ac(a2-3)Gal(b1-3)GlcNAc
How it was run: as §1

[12] = molecular target: Neu5Ac(a2-3)Gal(b1-3)GlcNAc(b1-2)Man
How it was run: as §1

[13] = molecular target: Neu5Ac(a2-3)Gal(b1-3)GlcNAc(b1-2)Man(a1-3)[GlcNAc(b1-4)][Neu5Ac(a2-3)Gal(b1-3)GlcNAc(b1-2)Man(a1-6)]Man(b1-4)GlcNAc(b1-4)GlcNAc
How it was run: as §1

[14] = molecular target: Neu5Ac(a2-3)Gal(b1-3)GlcNAc(b1-2)Man(a1-3)[Neu5Ac(a2-3)Gal(b1-3)GlcNAc(b1-2)Man(a1-6)]Man(b1-4)GlcNAc(b1-4)GlcNAc
How it was run: as §1

[15] = molecular target: Neu5Ac(a2-3)Gal(b1-3)GlcNAc(b1-2)[Neu5Ac(a2-3)Gal(b1-3)GlcNAc(b1-4)]Man(a1-6)[Neu5Ac(a2-3)Gal(b1-3)GlcNAc(b1-2)Man(a1-3)]Man(b1-4)GlcNAc(b1-4)GlcNAc
How it was run: as §1

[16] = molecular target: Neu5Ac(a2-3)Gal(b1-3)GlcNAc(b1-3)Gal(b1-3)GlcNAc
How it was run: as §1

[17] = molecular target: Neu5Ac(a2-3)Gal(b1-3)GlcNAc(b1-3)Gal(b1-4)GlcNAc
How it was run: as §1

[18] = molecular target: Neu5Ac(a2-3)Gal(b1-3)GlcNAc(b1-3)GalNAc
How it was run: as §1

[19] = molecular target: Neu5Ac(a2-3)Gal(b1-3)GlcNAc(b1-6)GalNAc
How it was run: as §1

[20] = molecular target: Neu5Ac(a2-3)Gal(b1-3)GlcNAc6S
How it was run: as §1

[21] = molecular target: Neu5Ac(a2-3)Gal(b1-3)[Fuc(a1-4)]GlcNAc
How it was run: as §1

[22] = molecular target: Neu5Ac(a2-3)Gal(b1-3)[Fuc(a1-4)]GlcNAc(b1-3)Gal(b1-3)[Fuc(a1-4)]GlcNAc
How it was run: as §1

[23] = molecular target: Neu5Ac(a2-3)Gal(b1-3)[Fuc(a1-4)]GlcNAc(b1-3)Gal(b1-4)[Fuc(a1-3)]GlcNAc
How it was run: as §1

[24] = molecular target: Neu5Ac(a2-3)Gal(b1-3)[GlcNAc(b1-6)]GalNAc
How it was run: as §1

[25] = molecular target: Neu5Ac(a2-3)Gal(b1-3)[Neu5Ac(a2-6)]GalNAc
How it was run: as §1

[26] = molecular target: Neu5Ac(a2-3)Gal(b1-3)[Neu5Ac(a2-6)]GlcNAc(b1-3)[Fuc(a1-3)[Gal(b1-4)]GlcNAc(b1-6)]Gal(b1-4)Glc
How it was run: as §1

[27] = molecular target: Neu5Ac(a2-3)Gal(b1-3)]Neu5Ac(a2-3)Gal(b1-4)]GlcNAc
How it was run: as §1

Neu5Ac(a2-3)Gal(b1-4)Glc = molecular target: Neu5Ac(a2-3)Gal(b1-4)Glc
How it was run: as §1

[28] = molecular target: Neu5Ac(a2-3)Gal(b1-4)GlcNAc
How it was run: as §1

[29] = molecular target: Neu5Ac(a2-3)Gal(b1-4)GlcNAc(b1-2)Man
How it was run: as §1

[30] = molecular target: Neu5Ac(a2-3)Gal(b1-4)GlcNAc(b1-2)Man(a1-3)[GlcNAc(b1-4)][Neu5Ac(a2-3)Gal(b1-4)GlcNAc(b1-2)Man(a1-6)]Man(b1-4)GlcNAc(b1-4)GlcNAc
How it was run: as §1

[31] = molecular target: Neu5Ac(a2-3)Gal(b1-4)GlcNAc(b1-2)Man(a1-3)[Neu5Ac(a2-3)Gal(b1-4)GlcNAc(b1-2)Man(a1-6)]Man(b1-4)GlcNAc(b1-4)GlcNAc
How it was run: as §1

[32] = molecular target: Neu5Ac(a2-3)Gal(b1-4)GlcNAc(b1-2)Man(a1-3)[Neu5Ac(a2-3)Gal(b1-4)GlcNAc(b1-2)Man(a1-6)]Man(b1-4)GlcNAc(b1-4)[Fuc(a1-6)]GlcNAc
How it was run: as §1

[33] = molecular target: Neu5Ac(a2-3)Gal(b1-4)GlcNAc(b1-2)Man(a1-3)[Neu5Ac(a2-6)Gal(b1-4)GlcNAc(b1-2)Man(a1-6)]Man(b1-4)GlcNAc(b1-4)GlcNAc
How it was run: as §1

B1: B1257 (Bifidobacterium sp) (protein)
chain: MKKSIRLVAAIAALAMTAGISACGSSTNGNQAKSDVTAQDVETALTDTSKNVELTVWAYSAKQMEPTVKAFEKKYPHIKINFVNTGAAGDHFTKFQNVVQAQKDIPDVVQMGANKFQQFAVSGALLNFANDSIEKAWSKLYTKTAWAQVHYAGGLYGAPQDATPLANYVRKDILDEHNLQVPESWEDIYNEGIKLHKEDSNKYMGILGSDISFFTNLYRSVGARLWKVNSVDDVELTMNSGKAKEFTEFLQKCLKDGVLEGGTVFTDEFNRSINDGRYATFINENWMGNTYKEQNPSLKGKMVVAAPPSWKGQPYQSSSVGSMMSVSAACPKEKQAAALAFINWLDSDKDAIQSWQDTNNGNFFMAASVYQDDENQRNKKETDGYYANDDVNAVYFDSMDKVNTDWEYLPFMSQVEVVFNDVIVPQMNENGDLVGAMAKAQQELKTYAKDNGFKVTTDAD
glycan array binding signal (z-score) [1]: -0.148 | glycan array binding signal (z-score) [2]: -0.034 | glycan array binding signal (z-score) [3]: -0.18 | glycan array binding signal (z-score) [4]: -0.128 | glycan array binding signal (z-score) (Man(a1-6)Man): -0.139 | glycan array binding signal (z-score) (Man(b1-4)GlcNAc): -0.108 | glycan array binding signal (z-score) (MurNAc(b1-4)GlcNAc): -0.09 | glycan array binding signal (z-score) (Neu5Ac(a2-3)Gal): -0.115 | glycan array binding signal (z-score) [5]: -0.071 | glycan array binding signal (z-score) [6]: -0.056 | glycan array binding signal (z-score) [7]: -0.101 | glycan array binding signal (z-score) [8]: -0.062 | glycan array binding signal (z-score) [9]: -0.125 | glycan array binding signal (z-score) [10]: -0.118 | glycan array binding signal (z-score) [11]: -0.109 | glycan array binding signal (z-score) [12]: -0.095 | glycan array binding signal (z-score) [13]: -0.048 | glycan array binding signal (z-score) [14]: -0.027 | glycan array binding signal (z-score) [15]: -0.013 | glycan array binding signal (z-score) [16]: -0.195 | glycan array binding signal (z-score) [17]: -0.142 | glycan array binding signal (z-score) [18]: -0.12 | glycan array binding signal (z-score) [19]: -0.02 | glycan array binding signal (z-score) [20]: -0.184 | glycan array binding signal (z-score) [21]: -0.08 | glycan array binding signal (z-score) [22]: 0.035 | glycan array binding signal (z-score) [23]: 0.01 | glycan array binding signal (z-score) [24]: 0.008 | glycan array binding signal (z-score) [25]: 0.04 | glycan array binding signal (z-score) [26]: -0.061 | glycan array binding signal (z-score) [27]: -0.147 | glycan array binding signal (z-score) (Neu5Ac(a2-3)Gal(b1-4)Glc): -0.103 | glycan array binding signal (z-score) [28]: -0.138 | glycan array binding signal (z-score) [29]: 0.015 | glycan array binding signal (z-score) [30]: -0.115 | glycan array binding signal (z-score) [31]: -0.163 | glycan array binding signal (z-score) [32]: -0.039 | glycan array binding signal (z-score) [33]: -0.138
